Among all 310,000 compounds or so, about 14,000 (4.5%) showed an effect of 50% or more. The effect is printed as a negative number. The list shows a part of the results.
target: human ether-à-go-go-related gene (hERG) potassium channel (human, UniProt Q12809); assay: primary screen, population patch clamp on CHO cells stably expressing hERG
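Also: peak tail current of the secondary pulse compared with the same well before compound.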

Chain of human ether-à-go-go-related gene (hERG) potassium channel (Q12809 whole entry, looked up): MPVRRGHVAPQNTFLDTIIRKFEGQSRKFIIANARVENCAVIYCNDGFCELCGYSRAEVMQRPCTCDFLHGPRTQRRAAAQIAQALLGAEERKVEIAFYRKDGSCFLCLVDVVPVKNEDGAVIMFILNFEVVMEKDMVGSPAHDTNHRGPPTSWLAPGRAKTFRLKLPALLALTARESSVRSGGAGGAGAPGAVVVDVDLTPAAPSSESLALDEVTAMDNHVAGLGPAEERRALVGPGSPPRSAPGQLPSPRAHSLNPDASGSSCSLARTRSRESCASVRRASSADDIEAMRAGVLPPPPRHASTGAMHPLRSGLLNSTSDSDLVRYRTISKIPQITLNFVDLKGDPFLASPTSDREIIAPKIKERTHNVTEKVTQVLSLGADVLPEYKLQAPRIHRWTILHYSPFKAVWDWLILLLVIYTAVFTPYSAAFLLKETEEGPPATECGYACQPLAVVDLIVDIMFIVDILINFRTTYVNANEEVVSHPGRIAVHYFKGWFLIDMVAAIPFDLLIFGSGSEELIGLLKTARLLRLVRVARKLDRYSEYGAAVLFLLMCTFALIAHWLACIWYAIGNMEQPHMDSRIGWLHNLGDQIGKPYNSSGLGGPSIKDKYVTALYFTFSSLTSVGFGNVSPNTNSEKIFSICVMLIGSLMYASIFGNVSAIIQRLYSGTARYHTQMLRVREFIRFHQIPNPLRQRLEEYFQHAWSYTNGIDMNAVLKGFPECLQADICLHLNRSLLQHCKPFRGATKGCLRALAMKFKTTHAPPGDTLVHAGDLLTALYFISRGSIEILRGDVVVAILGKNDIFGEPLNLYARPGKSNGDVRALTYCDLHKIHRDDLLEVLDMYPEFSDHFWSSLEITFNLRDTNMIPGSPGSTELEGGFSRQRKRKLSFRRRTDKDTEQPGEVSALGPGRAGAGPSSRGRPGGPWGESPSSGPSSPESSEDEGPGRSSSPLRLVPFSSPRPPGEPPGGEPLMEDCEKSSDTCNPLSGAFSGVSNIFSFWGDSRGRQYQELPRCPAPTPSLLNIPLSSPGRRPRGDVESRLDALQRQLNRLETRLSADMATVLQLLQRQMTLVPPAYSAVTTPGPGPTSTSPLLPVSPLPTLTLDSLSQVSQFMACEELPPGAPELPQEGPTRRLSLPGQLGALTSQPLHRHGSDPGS

Structure (SMILES) | hERG current change (%, negative = inhibition) at 10uM [%]
COC(=O)c1ccc(CN(c2ccccn2)S(=O)(=O)c2ccccc2)cc1 | 14.1
CN1CCN(c2ccccc2NC(=O)c2ccccc2F)CC1 | -70.8
CN(C)C(=O)/C(=C\c1ccncc1)NC(=O)c1ccccc1 | 3.16
O=C(NC1CCN(S(=O)(=O)c2ccc(F)cc2)CC1)C1CCCCC1 | 2.62
COc1ccc(C2SCC(=O)Nc3c2c(C)nn3-c2ccccc2)cc1 (stereo not drawn) | -7.35
NC1=NC(=O)C(Cc2cc(Cl)ccc2Cl)S1 (stereo not drawn) | 11.8
C/C(=N\NS(=O)(=O)c1cccc([N+](=O)[O-])c1)c1cc2ccccc2o1 | -2.61
CCCC(C)C1(CC)C(=O)NC(=O)N=C1N (stereo not drawn) | -76.5
Cc1c(=O)n(OCc2ccccc2F)c2ccccc2[n+]1[O-] | 9.08
COc1cccc(-c2cc(C(F)(F)F)nc(-n3cc(C)cn3)n2)c1 | -15.3
COc1ccc(Cl)cc1NC(=S)NCCc1ccc(F)cc1 | -2.21
COc1ccc(C)cc1NC(=O)C1CCN(C(=O)c2ccco2)CC1 | 4.94
O=S(=O)(Nc1ncn[nH]1)c1ccc(Cl)cc1 | 1.74
O=C(c1cc(COc2ccc(F)cc2Cl)on1)N1CCc2ccccc2C1 | 14.4
CCOc1ccc(C(=O)NCC(c2cccs2)N(C)C)cc1OCC (stereo not drawn) | -45.6
O=C(Nc1ccc(N2CCN(C(=O)C3CC3)CC2)cc1)c1cccs1 | 2.17
CN(C)c1ccc(C(C(=O)NCC2CCCO2)N(Cc2ccccc2)C(=O)c2snc(C(N)=O)c2N)cc1 (stereo not drawn) | 18.9
CCOc1ccc(OCC(=O)Nc2c3c(nn2C(C)(C)C)CS(=O)(=O)C3)cc1 | 0.297
CC(C)(C)C(=O)Nc1ccc(C(=O)CN2C(=O)NC3(CCOc4ccccc43)C2=O)cc1 (stereo not drawn) | -11.6
Cc1cccc(CCNCc2c(C(=O)O)c(C)n(-c3ccccc3)c2C)c1 | 4.31
COc1ccc(C(O)P(=O)(O)CCc2ccccc2)cc1 (stereo not drawn) | -2.85
CC(C)(C)c1ccc(C(=O)Nc2ccc(Cl)cc2)cc1 | -3.08

Structure (SMILES) | hERG current change (%, negative = inhibition) at 10uM [%]
Cl.c1ccc2c(CN3CCOCC3)csc2c1 | 9.52
Cc1ccnc(NS(=O)(=O)c2ccc(NS(=O)(=O)c3cc(Cl)ccc3Cl)cc2)n1 | 4.09
COc1ccc(-c2cc(C(=O)N3CCCC(C(F)(F)F)C3)c3ccccc3n2)cc1OC (stereo not drawn) | -9.42
COc1ccc(NS(=O)(=O)c2cc(Br)cc3c2N(C(C)=O)CC3)cc1 | 33
CCN1C(=O)/C(=C/c2ccc(N3CCCC3)cc2)NC1=S | -4.28
CC(C#N)Sc1ccc(S(=O)(=O)N2CCCC2)cn1 (stereo not drawn) | -14
CC(=O)Nc1cccc(NS(=O)(=O)c2ccccc2[N+](=O)[O-])c1 | 11.9
COc1cccc(C2=NOC(C(=O)NCCCn3ccnc3)C2)c1 (stereo not drawn) | 4.03
COC(=O)Oc1ccc(/C=N/NC(=O)CN(c2ccccc2Br)S(C)(=O)=O)cc1OC | -48.3
Nc1nc(CN2CCN(c3ccccc3F)CC2)nc(N2CCCc3ccccc32)n1 | -11.7
CCCC(=O)Nc1ccccc1-c1nnc(SC)[nH]c1=O | -1.26
COC(=O)c1ccc(CSc2nc3ccccc3c(=O)n2-c2ccc(OC)c(OC)c2)o1 | 11.9
Cc1csc(NC(=O)CSC2=NS(=O)(=O)c3ccccc3N2)n1 | 9.66
Cc1cc(C)c(C(=O)NC2CCCc3c2cnn3-c2ccc(C)c(C)c2)c(=O)[nH]1 (stereo not drawn) | 1.56
CC1=C(C(N)=O)C(c2ccc(Br)cc2)n2ncnc2N1 (stereo not drawn) | 14
N#Cc1ccc2nc3c(nc2c1)CCCC3 | -39.2
COC(=O)C1=C(c2cccc(OCc3ccccc3)c2)C[C@@H]2CC[C@H]1N2C(=O)NCCOc1ccc(OC)cc1 | -8.15
Cc1ccc(NC(=O)CN2C(=O)S/C(=C\c3ccccn3)C2=O)cc1C | 14.4
Cl.O=C(C1CCC1)N1CCN(Cc2ccccc2)CC1 | 8.14
COc1ccc(NC(=O)CN(C)C(=O)c2cn(-c3ccccc3)nc2-c2cccnc2)cc1 | -24.2
C=CCN(C(=O)c1csnn1)C(C(=O)NCc1ccc(F)cc1)c1ccccc1F (stereo not drawn) | -11.7
Cc1ccc(C)c(NC(=O)C2CCCN2C(=O)NC2CCCCC2)c1 (stereo not drawn) | 22.6

Structure (SMILES) | hERG current change (%, negative = inhibition) at 10uM [%]
CCOC(=O)NC(=O)C(=CNc1ccc(C)cc1)C(=O)NC(=O)OCC | 13.6
CCOC(=O)c1c(C)nc(C)c2c(=O)oc3ccccc3c12 | -0.0573
CCOC(=O)c1oc2ccccc2c1NC(=O)C(C)(C)C | -9.6
C=CCNC(=O)/C(=C/c1cccc([N+](=O)[O-])c1)NC(=O)c1ccccc1 | -31.2
COc1ccc(-n2cc(C#N)c(=O)[nH]c2=O)cc1 | 33.5
COc1cc(OC)cc(-c2c(C#Cc3ccsc3)c3cc(-c4ccc(OC)nc4)ccc3n2C)c1 | 11.7
COc1ccc(C2/C(=C(\O)c3ccc4c(c3)OCCO4)C(=O)C(=O)N2CCCN(C)C)c(OC)c1 (stereo not drawn) | -9.82
COc1cccc(NC(=O)CN(C)CC(=O)c2c(N)n(Cc3ccccc3)c(=O)n(C)c2=O)c1 | -8.12
O=C(Nc1ccc(NC(=O)C2CC2)cc1)c1ccco1 | 22.1
C[C@H](N)c1nnc(SCc2ccc(Cl)cc2Cl)o1.Cl | -9.18
O=C1CCCCN1CCCC(=O)N1CCCC(Nc2ccccc2)C1 (stereo not drawn) | 13.3
COC(=O)CC(NC(=O)c1cccs1)c1ccc(OC)c(OC)c1 (stereo not drawn) | 16.9
C=CCn1ccc(=NC=C(C#N)C#N)c2ccccc21 | -25.2
N/C(=N\OC(=O)Cc1ccc(Cl)cc1)c1cccnc1 | -13.4
O/N=C/c1cc(Br)cc(Br)c1OCc1ccccc1 | 14.2
Cc1ccc(NC(=O)C2CCCCC2)cc1C | -17.7
COc1c(Cl)cc(-c2noc(C)c2C(=O)NCc2ccccc2)cc1Cl | 2.35
COc1ccc(-c2cc(=O)c3ccccc3s2)cc1 | 12.7
O=C(Cc1ccccc1[N+](=O)[O-])N/N=C/c1cccnc1 | 10
CCCCNc1ccc(C(CC(N)=O)NC(=O)c2cc(C)cc(C)c2)cc1[N+](=O)[O-] (stereo not drawn) | 15.1
CCN(CC)C(=O)c1ccc2c(c1)C1C=CCC1C(C(=O)O)N2 (stereo not drawn) | 11.9
CC(C)Cn1nc(C(=O)NCc2ccccc2CN2CCCC2)c2ccccc2c1=O | -38.3

Structure (SMILES) | hERG current change (%, negative = inhibition) at 10uM [%]
CCc1nc(SCC(=O)N2CCCC2)c2ccccc2n1 | -12.6
O=C(NN=C(Cc1ccccc1)Cc1ccccc1)C1CC1 | 10.4
COc1cc(C(=O)ON=C2C3CC4CC(C3)CC2C4)cc(OC)c1OC | 11.5
CN(C)S(=O)(=O)c1ccc(Nc2nc(C3CC3)nc3c2nnn3Cc2ccccc2Cl)cc1 | 18.8
O=C(NC1CC2CCCC(C1)N2C(=S)Nc1ccccc1Cl)C1CC1 (stereo not drawn) | -0.486
Cc1ccc(-n2c(O)c(C=NCCN3CCOCC3)c(=O)[nH]c2=O)cc1 | 20.1
CCOC(=O)c1cnc(-n2nc(C)cc2C)nc1Nc1ccc(N(C)C)cc1 | -0.0406
COc1ccc(S(=O)(=O)N(CC(=O)N2CCOCC2)c2cc(Cl)ccc2OC)cc1OC | -16.6
COCCN(C(=S)Nc1c(C)cccc1C)C(C)c1cccs1 (stereo not drawn) | 0.794
O=C1OCCN1C(=O)[C@H]1[C@H](c2ccc(F)cc2)C(c2ccc(F)cc2)=NN1c1ccccc1 | 5.58
COc1ccc(NC(=S)NN2CCN(C)CC2)cc1 | 12.6
COc1ccc(C(=O)NCC(c2ccccc2)N2CCCC2)cc1S(=O)(=O)N1CCOCC1 (stereo not drawn) | -4.23
Cc1ccc(-n2nnnc2-c2cccc(C)c2)cc1 | 1.24
COc1ccc(C(=O)N/C(=C/c2ccccc2F)C(=O)NCCN2CCOCC2)cc1OC | 13.9
CSc1ccc(/C=C/C(=O)NC(=O)c2ccccc2O)cc1 | 11.3
C=CCn1c(SCC(=O)N2CCCC2)nc2cc(C(=O)NCC3CCCO3)ccc2c1=O (stereo not drawn) | -31.8
c1ccc(C2CC(c3ccccc3)n3ncnc3N2)cc1 (stereo not drawn) | -17.3
Cc1cc(NC(=O)CSc2nc(=O)n(CCCN(C)C)c3c2CCCC3)no1 | -7.06
CN(/C(=N/S(=O)(=O)c1ccccc1)c1ccccc1)S(=O)(=O)c1ccccc1 | -14.5
COc1ccc([N+](=O)[O-])cc1NC(=O)COC(=O)C=C(C)C | 3.39
O=C(Cn1c(=O)[nH]c2ccsc2c1=O)N1CCN(c2ccc(F)cc2)CC1 | -20.1

— PMC4336329 (PLoS ONE, 2015)
